This note sets out measurements from ChEMBL document CHEMBL4888484, “Replenishing the malaria drug discovery pipeline: Screening and hit evaluation of the MMV Hit Generation Library 1 (HGL1) against asexual blood stage Plasmodium falciparum ,using a nano luciferase reporter read-out” (2022).

The campaign covered roughly 150,000 compounds. About 540 (0.36%) showed an effect of 50% or more. This is one part of the list.

The test system of the test is Plasmodium falciparum. Put plainly: Primary screen in NF54 nanoGlo assay, in single point, at 2uM, 72h; a lower Z score goes with more inhibition. The test is classed as functional, Erythrocyte. To be noted: timepoint 72 hour.
The % Inhibition is the change of the read-out against control, counted positive when it falls. Regarding `CC(C)N(C)CC1CCN(C(=O)c2cc(-c3ccccc3)c(N3CCOCC3)s2)CC1`, the “% Inhibition” value stood at 41% and the Z score is -5.52.

With `Cc1ccc2c(c1)C[C@@H](C(=O)NCc1snnc1C)N2`, the “% Inhibition” value is recorded as 0% and the Z score was -0.03.

On to `CS(=O)(=O)C[C@H]1CCN(C(=O)c2c[nH]c(C(F)(F)F)c2)C1`, for which the “% Inhibition” value was -4% and the Z score worked out at 0.89.

In the case of `CC(C)(C)C(=O)CNC(=O)c1ccncc1F`, the “% Inhibition” value is reported as -3% and the Z score is listed as 0.39.

With `O=C(c1ccncc1)N1CCC(F)(C(=O)N2CCOCC2)CC1`, the “% Inhibition” value is listed as -13% and the Z score came to 1.65.

On to `CNC(=O)CN1CCN(c2ccc(C#N)c(N3CCN(CC(=O)NC)CC3)n2)CC1`, for which the “% Inhibition” value is -12% and the Z score worked out at 2.21.

Take `Cc1cc(C)c(C(=O)N2CCC[C@H](Nc3ccc4c(c3)OCCO4)C2)c(=O)[nH]1`: the “% Inhibition” value is recorded as -9% and the Z score is reported as 1.25.

As to `COc1cncnc1NC(=O)NC[C@H]1[C@H](c2ccccc2)C1(F)F`, the “% Inhibition” value is reported as -5% and the Z score is recorded as 0.93.

Turning to `CCN(C)S(=O)(=O)N[C@@H]1CCOC[C@@H]1Nc1ccnc(C)n1`, the “% Inhibition” value was found to be 8% and the Z score was -0.98.

With `CCCc1nc(N2Cc3cnc(CC(C)C)nc3C2)no1`, the “% Inhibition” value is reported as -5% and the Z score is reported as 0.92.

For the compound `CCN(C(C)=O)c1nc(CNc2ccccc2[C@H](C)O)cs1`, the “% Inhibition” value is listed as -25% and the Z score came out at 2.23.

For `O=C(O)c1ccc(Cl)c(NC(=O)c2cc3c(s2)CCCC3)c1`, the “% Inhibition” value is recorded as 3% and the Z score was -0.59.

In the case of `CC(C)CC[C@H](N)C(=O)Nc1cccc(N)c1`, the “% Inhibition” value is -2% and the Z score is 0.44.

Turning to `COCCN(CC1CC1)C(=O)c1cncnc1C`, the “% Inhibition” value is -10% and the Z score was found to be 0.96.

As for `C[C@H]1CCN(C(=O)Nc2cccc3c2OCC(=O)N3)C[C@@H](C)C1`, the “% Inhibition” value was 10% and the Z score is recorded as -1.32.

With `Cc1ccc(-c2nnn(C)n2)cc1NC(=O)NC1CCOCC1`, the “% Inhibition” value was determined as 1% and the Z score is listed as -0.24.

For the compound `CC[C@H](C)NC(=O)c1ccc(CN2C(=O)CCn3nc(-c4ccccc4)cc32)cc1`, the “% Inhibition” value is recorded as 22% and the Z score was -2.51.

`CCOc1ncc(NC(=O)c2cccc3ccccc23)c(OCC)n1`: the “% Inhibition” value is on record as -10% and the Z score was 1.92.

Consider `CC[C@@](NC(=O)Cc1cccs1)(C(N)=O)C(C)C`, for which the “% Inhibition” value is on record as -10% and the Z score is given as 0.98.

With `CC1(C)COCCN1C(=O)COC(F)F`, the “% Inhibition” value is given as -10% and the Z score is recorded as 1.87.

Consider `O=C(NC1CCN(c2nnc3ccccn23)CC1)c1ccccn1`, for which the “% Inhibition” value turned out to be 32% and the Z score is -3.66.

On to `CCc1cnc(CNC(=O)[C@@H](OC)C2CC2)s1`, for which the “% Inhibition” value turned out to be 1% and the Z score was -0.14.

`CC(=O)N1CCN(Cc2cccc(-c3cnc4c(c3)CCCO4)c2)CC1`: the “% Inhibition” value is recorded as -17% and the Z score was 2.18.

Regarding `CC1(C)NC(=O)CC[C@@H]1NC1CC(c2cccc(F)c2)C1` (stereo partly drawn), the “% Inhibition” value was 31% and the Z score is -4.44.
